Read-out in test [1]: Interferon-gamma inducible Protein 10 (IP10), CXCL10 (gene 3627)
Nature of the test: BSK_BE3C_IP10: BioMAP Diversity Plus: BE3C Assay for Interferon-gamma inducible Protein 10 (IP10) Biomarker Activity (AID 2283034). As to conditions: actives raise or lower the signal; primary human bronchial epithelial cells. The gist of the method: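 Primary human bronchial epithelial cells, with IP-10 measured by ELISA 24 hours after chemical dosing. Bidirectional fit against DMSO; cytotoxicity checked by SRB total protein staining in parallel cultures.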

Read-out in test [2]: Urokinase-type plasminogen activator receptor (uPAR), PLAUR (gene 5329)
Nature of the test: BSK_4H_uPAR: BioMAP Diversity Plus: 4H Assay for Urokinase-type plasminogen activator receptor (uPAR) Biomarker Activity (AID 2283030). As to conditions: actives raise or lower the signal; primary human endothelial cells (HUVEC). A digest of the protocol:
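Endpoint derived via bidirectional curve fitting against DMSO baseline; readout was ELISA detection of uPAR on umbilical vein endothelial cells at 24 h post-treatment, with SRB-stained parallel cultures assessing cytotoxicity.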

A short description of test [3]: BSK_CASM3C_SRB: Viability Assessment in the BioMAP Diversity Plus: CASM3C Assay (AID 2283050). To be noted: primary human coronary artery smooth muscle cells.
Read-out in test [4]: Pyruvate Dehydrogenase Kinase 4 (PDK4), PDK4 (gene 5166)
Nature of the test: LTEA_HepaRG_PDK4: Life Technologies and Expression Analysis (LTEA) Assay for Pyruvate Dehydrogenase Kinase 4 (PDK4) using HepaRG (AID 2283525). As to conditions: actives raise or lower the signal; mRNA level, 48 h. A digest of the protocol:
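HepaRG cells plated 48 h, then switched to serum-free induction medium and exposed in duplicate for 48 h to 8 half-log concentrations from 100 uM in 0.5% DMSO. PDK4 mRNA measured by qRT-PCR, normalized to ACTB, GAPDH and POLR2A; bidirectional fit versus DMSO.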

Test [5] in a line: Tanguay_ZF_120hpf_SOMI_legacy: (Legacy) Oregon State University Tanguay Lab 120 Hour Post-fertilization zebrafish Assay for Somite Malformation (AID 2283647; active = hit-call score of the fitted dose curve at least 0.9, where 1 is the maximum). A digest of the protocol: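 Somitogenesis defects are recorded as binary calls in whole larvae at 120 hpf after continuous static chemical exposure starting at 6 hpf in dechorionated 5D embryos. DMSO serves as negative control and baseline.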

The nature of test [6]: CCTE_Shafer_MEA_acute_per_network_burst_electrodes_number_mean: CCTE's Neural Acute Assay for Mean Number of Electrodes in a Network Burst, Shafer Lab (AID 2284021). The gist of the method:
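Percent change from baseline in average electrode count per network burst, rat cortical cultures on 48-well MEAs; 40-min recordings each side of exposure, DIV 13 or 15; threshold 8x rms noise; DMSO as negative control.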

Read-out in test [7]: Thrombomodulin, THBD (gene 7056)
Nature of the test: BSK_3C_Thrombomodulin: BioMAP Diversity Plus: 3C Assay for Thrombomodulin Biomarker Activity (AID 2283029). As to conditions: actives raise or lower the signal; primary human endothelial cells (HUVEC). A digest of the protocol: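 Human umbilical vein endothelial cells were exposed to chemicals for 24 h; cell-surface thrombomodulin quantified by ELISA, with bidirectional fitting against DMSO baseline.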

Read-out in test [8]: Vascular endothelial growth factor receptor 2 (Homo sapiens) (UniProt P35968)
Nature of the test: BSK_4H_VEGFRII: BioMAP Diversity Plus: 4H Assay for Vascular endothelial growth factor receptor 2 (VEGFR2) Biomarker Activity (AID 2283031). As to conditions: actives raise or lower the signal; primary human endothelial cells (HUVEC). A digest of the protocol:
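In this multiplexed HUVEC system, biomarker ELISA was performed after 24 h chemical exposure. Parallel SRB staining (TCA fixation, 560 nm) tracked cytotoxicity; DMSO served as baseline.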

Read-out in test [9]: Interferon-gamma inducible Protein 10 (IP10), CXCL10 (gene 3627)
Nature of the test: BSK_KF3CT_IP10: BioMAP Diversity Plus: KF3CT Assay for Interferon-gamma inducible Protein 10 (IP10) Biomarker Activity (AID 2283068). As to conditions: actives raise or lower the signal; primary human keratinocytes with fibroblasts. A digest of the protocol:
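KF3CT co-culture (keratinocytes + foreskin fibroblasts), 24 h compound, IP-10 by ELISA; bidirectional fit vs DMSO baseline.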

Read-out in test [10]: CD40, CD40 (gene 958)
Nature of the test: BSK_SAg_CD40: BioMAP Diversity Plus: SAg Assay for CD40 Biomarker Activity (AID 2283088). As to conditions: actives raise or lower the signal; primary human HUVEC with PBMC. The gist of the method:
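Endpoint derived by fitting increases or decreases versus DMSO controls. CD40 is detected by fluorescence ELISA in a human vascular co-culture of endothelium and PBMC at 24 h.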

Read-out in test [11]: CD69, CD69 (gene 969)
Nature of the test: BSK_SAg_CD69: BioMAP Diversity Plus: SAg Assay for CD69 Biomarker Activity (AID 2283089).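 Note: cell surface CD69 protein quantified by ELISA with fluorescence detection.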 To be noted: actives raise or lower the signal; primary human HUVEC with PBMC. A digest of the protocol:
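Endothelial/PBMC co-culture; chemical added; 24 h incubation; CD69 ELISA with fluorescence detection; bidirectional fit vs DMSO.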

Read-out in test [12]: JUN Transcription Factor, JUN (gene 3725)
Nature of the test: LTEA_HepaRG_JUN: Life Technologies and Expression Analysis (LTEA) Assay for JUN Transcription Factor using HepaRG (AID 2283513). As to conditions: actives raise or lower the signal; mRNA level, 48 h. The gist of the method: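 HepaRG cells, 48 h post-plating, exposed 48 h in serum-free induction medium to 8-point half-log series (top 100 uM, 0.5% DMSO), duplicate; mRNA by qRT-PCR (TaqMan, Fluidigm), normalized to ACTB/GAPDH/POLR2A; bidirectional fit vs DMSO.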

Test [13] in a line: BSK_BE3C_SRB: Viability Assessment in the BioMAP Diversity Plus: BE3C Assay (AID 2283028).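 Note: fitted both ways so AC50 may mark signal gain or loss versus DMSO.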 To be noted: primary human bronchial epithelial cells. A digest of the protocol:
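SRB total-protein staining (0.1%, after TCA fixation) of chemically dosed human bronchial epithelial primary cells at 24 h; DMSO serves as the negative control for bidirectional curve fitting.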

Read-out in test [14]: Vascular cell adhesion molecule 1 (VCAM1), VCAM1 (gene 7412)
Nature of the test: BSK_4H_VCAM1: BioMAP Diversity Plus: 4H Assay for Vascular cell adhesion molecule 1 (VCAM1) Biomarker Activity (AID 2283033). To be noted: actives raise or lower the signal; primary human endothelial cells (HUVEC). A digest of the protocol: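 Primary human umbilical vein endothelial cells, 4H stimulation system, treated for 24 h; cell-surface VCAM-1 quantified by ELISA. Bidirectional fitting against DMSO; cytotoxicity tracked by SRB total-protein staining in parallel cultures.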

Read-out in test [15]: E-selectin (Homo sapiens) (UniProt P16581)
UniProt P16581, sequence (P16581 whole entry, looked up): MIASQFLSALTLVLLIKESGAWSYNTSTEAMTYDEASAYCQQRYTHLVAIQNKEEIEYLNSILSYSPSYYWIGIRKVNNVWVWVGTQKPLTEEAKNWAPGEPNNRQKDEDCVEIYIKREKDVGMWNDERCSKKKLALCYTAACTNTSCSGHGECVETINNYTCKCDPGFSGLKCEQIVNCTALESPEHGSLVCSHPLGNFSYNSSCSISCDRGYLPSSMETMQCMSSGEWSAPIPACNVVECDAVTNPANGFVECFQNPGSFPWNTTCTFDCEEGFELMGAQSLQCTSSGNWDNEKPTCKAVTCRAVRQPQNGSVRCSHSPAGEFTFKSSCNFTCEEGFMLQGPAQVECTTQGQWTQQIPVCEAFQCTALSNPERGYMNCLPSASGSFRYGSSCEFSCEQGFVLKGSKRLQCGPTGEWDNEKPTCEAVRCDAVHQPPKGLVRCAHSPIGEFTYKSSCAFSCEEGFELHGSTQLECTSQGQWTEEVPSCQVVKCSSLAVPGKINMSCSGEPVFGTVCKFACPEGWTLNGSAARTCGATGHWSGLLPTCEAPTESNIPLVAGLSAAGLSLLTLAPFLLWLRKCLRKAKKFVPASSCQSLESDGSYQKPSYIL
Nature of the test: BSK_SAg_Eselectin: BioMAP Diversity Plus: SAg Assay for Eselectin Biomarker Activity (AID 2283091). To be noted: actives raise or lower the signal; primary human HUVEC with PBMC. A digest of the protocol: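 Endpoint values derive from bidirectional fitting relative to DMSO, using ELISA-measured E-selectin in a human vascular co-culture (umbilical vein endothelium plus PBMC) sampled 24 h after dosing.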

The target of test [16] is Cellular tumor antigen p53 (Homo sapiens) (UniProt P04637). Nature of the test: TOX21_p53_BLA_p2_ratio: Tox21 HCT-116 p53 Agonism Beta-lactamase Assay, Ratio, Phase 2 (AID 2283592; active = hit-call score of the fitted dose curve at least 0.9, where 1 is the maximum). The gist of the method:
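Human colon HCT116 cells with an inducible p53 beta-lactamase reporter are exposed to test chemicals for 16 h at 37C. Reporter induction is read as the 460/530 nm emission ratio after CCF4-AM loading, normalized to DMSO.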

Read-out in test [17]: Collagen III, COL3A1 (gene 1281)
Nature of the test: BSK_MyoF_CollagenIII: BioMAP Diversity Plus: MyoF Assay for Collagen III Biomarker Activity (AID 2284239). As to conditions: primary human lung fibroblasts. A digest of the protocol: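 Multiplexed cell assay in lung fibroblasts, harvested at 24 h post-dose. Collagen III detected by ELISA, with positive-direction fitting relative to DMSO vehicle.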

Structures are written as SMILES. For some assays here: What follows is the remainder of the data, with few or none of the hits. This is a selection; strong and weak results do not stand in their true shares. Results filed as inconclusive are left out. The source holds several records for some structures; these can differ, active in one and inactive in another. The source made the active and inactive calls. Rule for the calls, unless noted: active = hit-call score of the fitted dose curve at least 0.9, where 1 is the maximum; inactive = score below 0.9.

In general, AC50 refers to the midpoint of the concentration-response curve, whichever way the signal moves.

UniProt P04637, sequence (P04637 whole entry, looked up): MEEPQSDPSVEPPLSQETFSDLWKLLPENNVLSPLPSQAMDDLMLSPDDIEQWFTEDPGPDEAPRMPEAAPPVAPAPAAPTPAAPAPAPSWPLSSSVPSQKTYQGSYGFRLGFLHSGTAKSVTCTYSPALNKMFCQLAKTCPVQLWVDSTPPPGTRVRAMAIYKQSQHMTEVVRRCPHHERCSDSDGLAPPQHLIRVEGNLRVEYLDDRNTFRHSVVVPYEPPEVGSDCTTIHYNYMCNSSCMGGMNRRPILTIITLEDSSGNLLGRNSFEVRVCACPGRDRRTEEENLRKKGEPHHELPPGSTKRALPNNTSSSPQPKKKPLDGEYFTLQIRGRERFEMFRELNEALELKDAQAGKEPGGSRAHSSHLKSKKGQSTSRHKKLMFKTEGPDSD

Regarding `NC(=O)N1c2ccccc2C=Cc2ccccc21`, the outcome in [1] was inactive.

`CCCCCCCCCCCCCCCCCC(=O)O`: the result in [2], in test [3], in [4], in test [5] and in test [6] was inactive.

As to `CC(C)OC(=O)C(C)(C)Oc1ccc(C(=O)c2ccc(Cl)cc2)cc1`, the outcome in test [7], in [8], in test [9] and in [12] was inactive. Besides, the concentration at half-maximal activity (AC50) is active: 30.6 µM in test [10] and active: 30 µM in [11].

As to `O=C1OC2(c3ccccc31)c1cc(I)c(O)c(I)c1Oc1c2cc(I)c(O)c1I`, the concentration at half-maximal activity (AC50) was active: 10.1 µM in test [13], active: 15.1 µM in test [14], active: 12.7 µM in test [15] and active: 2.76 µM in test [17]. Further, the result in [16] was inactive.

The record behind these values is PubChem BioAssay (EPA / NIEHS).
